Measurements published in PubChem BioAssay AID995 (National Center for Advancing Translational Sciences (NCATS), 2007).
In all, about 72,000 compounds went through this assay and about 710 (0.99%) were called active. The shares of active, inactive and inconclusive entries below differ from those in the screen. Calls come from the whole dose curve; as a rule, active = well fitted inhibition curve with a large enough effect; inconclusive = small, poorly fitted or top-dose-only effect; inactive = no such curve, though single readings can be large or run the other way. No potency is given beside an inconclusive call; the fits are too rough.

experiment: qHTS Assay for Inhibitors of the ERK Signaling Pathway using a Homogeneous Screening Assay; details: HEK293-V1b, vasopressin-stimulated pERK AlphaScreen; activity, negative = inhibition: at 57.5 µM (top of the series) unless noted; note: nearly all actives have a fitted effect of over 55% in size
In short: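 V1b-HEK293 cells; cpd 30 min 37C; 25 nM vasopressin 5 min; lyse 10 min; AlphaScreen beads 5 hr RT. Normalized to DMSO basal and 25 nM vasopressin; AC50 by Hill fit.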
% is set by controls: 0 for no effect and ±100 for the full control effect; potency is the fitted concentration of half-maximal effect; tags give direction and shape of the fitted curve.

| SMILES | Potency | activity, negative = inhibition |
| --- | --- | --- |
| CC(C)C[C@H](NC(=O)Nc1cccc(Cl)c1)C(=O)O | inconclusive [inhibitor, single point] | – |
| Cc1ccc(S(=O)(=O)N2CCN(S(=O)(=O)N(C)C)CC2)cc1 | – | inactive: -3.67% |
| Cc1ccc(-c2nc(CS(=O)(=O)CC(=O)N3CC(C)CC(C)C3)c(C)o2)cc1 (centres undefined) | inconclusive [inhibitor, partial curve] | – |
| O=C(c1ccc(Cl)cc1)c1ccc(OCC(O)CN2CCOCC2)cc1 (centres undefined) | inconclusive [inhibitor, partial curve] | – |
| N#C/C(=C\c1c[nH]c2ccccc12)C(=O)c1ccc(O)c(O)c1 | inconclusive [inhibitor, single point] | – |
| C=CCOc1ccccc1/C=N/O | inconclusive [inhibitor, single point] | – |
| O=C(Nc1ccc(N2CCN(C(=O)c3ccc(Cl)cc3)CC2)cc1)c1ccc(Br)o1 | inconclusive [inhibitor, single point] | – |
| OCCNCCO | – | inactive: -2.38% |
| O=C1CCCC2=C1C(c1ccco1)Nc1ccc(C(=O)c3ccccc3)cc1N2 (centres undefined) | inconclusive [inhibitor, partial curve, poor fit] | – |
| Cc1ccc2c(c1)cc(CN(Cc1ccc3c(c1)OCO3)C(=O)c1cnccn1)c1nnnn12 | – | inactive: 0.104% |
| COc1cc(C(Nc2ccc3c(c2)OCO3)C(=O)NC2CCCCC2)cc(OC)c1OC (centres undefined) | inconclusive [inhibitor, partial curve] | – |
| COCCn1c(=O)[nH]c2cc(C(=O)NCC3CCCO3)ccc2c1=O (centres undefined) | – | inactive: 15.3% |
| CCCN1Cc2cccc(C(=O)Nc3ccc4c(c3)OCO4)c2C1=O | – | inactive: 16.5% |
| CC1=C(C(=O)Nc2ccccc2)C(c2ccco2)C(C#N)=C(SCc2ccccc2)N1 (centres undefined) | – | inactive: 18.8% |
| CCN(CC)c1ccc(NC(=O)Nc2cccc(C(C)=O)c2)cc1 | inconclusive [inhibitor, partial curve] | – |
| O=C(c1cc(C(F)(F)F)cc(C(F)(F)F)c1)N1CCC[C@@]2(CCN(c3ccccn3)C2)C1 | – | inactive: -25.8% |
| Clc1ccc(CN2CCCN(Cc3ccc(Cl)cc3)C2c2cc3ccccc3c3ccccc23)cc1 | – | inactive: 2.47% [at 11.5 µM] |
| COc1ccc(-c2nn(C)c3sc(C(=O)N4CCOCC4)cc23)cc1OC | inconclusive [inhibitor, single point] | – |
| O=c1/c(=C\c2ccc3c(c2)OCO3)sc2n1CCCN=2 | active: 10 µM | – |
| COC1/C=C/OC2(C)Oc3c(C)c(O)c4c(O)c(c(/C=N/N5CCN(C)CC5)c(O)c4c3C2=O)NC(=O)/C(C)=C/C=C/C(C)C(O)C(C)C(O)C(C)C(OC(C)=O)C1C (centres undefined) | – | inactive: -28.2% |
| O=C(COC(=O)c1ccccc1Oc1ccccc1)NCc1ccco1 | inconclusive [inhibitor, single point] | – |
| CN1CCN(S(=O)(=O)c2ccc(Sc3nc4ccccc4[nH]3)c3nsnc23)CC1 | inconclusive [inhibitor, partial curve, poor fit] | – |

| SMILES | Potency | activity, negative = inhibition |
| --- | --- | --- |
| CCCCc1ccc(NC(=O)N[C@H](C(=O)O)C(C)CC)cc1 (some centres undefined) | inconclusive [inhibitor, full curve, poor fit] | – |
| CCOc1ccc(S(=O)(=O)N(CC(=O)Nc2cc(C)on2)Cc2ccccc2Cl)cc1 | inconclusive [inhibitor, single point] | – |
| Cn1c(C(=O)N2CCN(Cc3ccc4c(c3)OCO4)CC2)cc2c(=O)n(C)c3ccccc3c21 | inconclusive [inhibitor, single point] | – |
| COc1cccc(NC=C2C(=O)OC(C)(C)OC2=O)c1 | inconclusive [inhibitor, partial curve] | – |
| CCSc1sccc1C1C(C#N)=C(N)N(c2cccnc2)C2=C1C(=O)CCC2 (centres undefined) | active: 31.6 µM | – |
| Cc1ccccc1NS(=O)(=O)c1cccc(-c2nnc(-c3ccccc3)o2)c1 | inconclusive [inhibitor, single point] | – |
| COCCN1CCn2c(nc3cc(NC(=O)c4ccc(OC)cc4)ccc32)C1 | inconclusive [inhibitor, single point] | – |
| O=C(c1cccc(F)c1)N1C2C=CC(C2)C1(C(F)(F)F)C(F)(F)F (centres undefined) | – | inactive: 19.4% |
| CN(C)Cc1ccccc1-c1cncnc1Nc1ccncc1 | – | inactive: -9.03% |
| O=C(CSc1nnnn1C1CC2CCC1C2)Nc1ccnc2ccccc12 (centres undefined) | inconclusive [inhibitor, partial curve] | – |
| CCNc1nc(C)nc2c1oc1ccccc12 | – | inactive: 6.25% |
| COc1ccc(C(=O)N2CCCC(c3nc(-c4cccs4)no3)C2)cc1OC (centres undefined) | inconclusive [inhibitor, partial curve] | – |
| O=C(Cn1cccc1)N1CCN(C(c2ccccc2)c2ccccc2)CC1 | inconclusive [inhibitor, full curve, poor fit] | – |
| COC(=O)Cc1[nH]nc2c1C(C1C=CCCC1)C(C#N)=C(N)O2 (centres undefined) | inconclusive [inhibitor, partial curve] | – |
| N[C@H](C(=O)O)c1nn[nH]n1 | – | inactive: 1.09% |
| O=C1c2ccccc2C(=O)N1CCCP(=O)(O)CCc1ccccc1 | inconclusive [inhibitor, single point] | – |
| O=c1c(-c2ccc3c(c2)OCCO3)coc2cc(O)cc(O)c12 | inconclusive [inhibitor, single point] | – |
| c1cncc(CNc2nc(-c3cccnc3)nc3ccccc23)c1 | inconclusive [inhibitor, partial curve] | – |
| COCCNc1nc(-c2ccccc2Cl)nc2ccccc12 | inconclusive [inhibitor, full curve] | – |
| Cc1ccsc1-c1nc(CSCC(=O)N2CCN(c3ccccc3)CC2)c(C)o1 | inconclusive [inhibitor, single point] | – |
| COC(=O)c1ccc(C(NC(=O)OCc2ccccc2)/C(C)=C/[C@@H](C)C(=O)NC2CCCCC2)cc1 (some centres undefined) | – | inactive: -5.65% |
| CCOc1ccc2[nH]c3c(N4CCN(c5ccccn5)CC4)ncnc3c2c1 | inconclusive [inhibitor, partial curve] | – |
